# Paper PMC4336329 (PLoS ONE, 2015)
# Hit rate of the full screen: of about 310,000 compounds, about 2,200 (0.71%) showed an effect of 50% or more. The effect is printed as a negative number. This is one part of the list.
# Target: human ether-à-go-go-related gene (hERG) potassium channel (human, UniProt Q12809)
# Experiment: primary screen, population patch clamp on CHO cells stably expressing hERG
# human ether-à-go-go-related gene (hERG) potassium channel, sequence (Q12809 whole entry, looked up): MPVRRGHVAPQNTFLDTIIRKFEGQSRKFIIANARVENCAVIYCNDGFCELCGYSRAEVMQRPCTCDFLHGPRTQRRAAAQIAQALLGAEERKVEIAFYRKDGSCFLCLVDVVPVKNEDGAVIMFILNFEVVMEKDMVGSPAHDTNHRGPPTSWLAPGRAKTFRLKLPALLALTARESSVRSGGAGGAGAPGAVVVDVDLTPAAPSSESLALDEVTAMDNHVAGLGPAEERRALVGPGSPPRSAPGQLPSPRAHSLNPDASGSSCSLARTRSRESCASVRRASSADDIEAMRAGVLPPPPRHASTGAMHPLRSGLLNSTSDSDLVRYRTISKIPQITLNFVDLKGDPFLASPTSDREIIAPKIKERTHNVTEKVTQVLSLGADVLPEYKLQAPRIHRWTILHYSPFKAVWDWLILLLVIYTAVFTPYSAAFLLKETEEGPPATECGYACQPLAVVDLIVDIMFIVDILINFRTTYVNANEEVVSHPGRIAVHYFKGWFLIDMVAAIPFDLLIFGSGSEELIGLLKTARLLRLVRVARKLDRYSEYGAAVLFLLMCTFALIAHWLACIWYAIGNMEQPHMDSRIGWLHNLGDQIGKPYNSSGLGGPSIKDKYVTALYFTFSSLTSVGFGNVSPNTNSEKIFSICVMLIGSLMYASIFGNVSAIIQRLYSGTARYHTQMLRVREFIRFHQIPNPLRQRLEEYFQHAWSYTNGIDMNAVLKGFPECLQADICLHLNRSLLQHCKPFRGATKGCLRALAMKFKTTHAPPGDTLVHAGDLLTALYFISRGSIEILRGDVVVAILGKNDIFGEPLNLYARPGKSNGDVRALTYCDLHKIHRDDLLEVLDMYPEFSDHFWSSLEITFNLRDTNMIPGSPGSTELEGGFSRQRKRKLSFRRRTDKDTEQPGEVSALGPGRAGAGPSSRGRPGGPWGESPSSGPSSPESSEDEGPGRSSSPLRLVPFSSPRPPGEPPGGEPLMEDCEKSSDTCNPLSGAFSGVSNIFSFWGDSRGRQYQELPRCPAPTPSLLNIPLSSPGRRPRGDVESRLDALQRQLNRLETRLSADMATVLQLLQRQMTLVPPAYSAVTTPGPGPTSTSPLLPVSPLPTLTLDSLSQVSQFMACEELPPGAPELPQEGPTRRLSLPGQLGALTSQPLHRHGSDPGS
row,SMILES,"hERG current change (%, negative = inhibition) at 1uM"
1,Cc1cc(C(=O)CSc2nnc(-c3ccc(Cl)cc3)n2CC2CCCO2)c(C)n1C (centres unmarked),-2.88%
2,CCS(=O)(=O)CCSc1nc2c(cc1C#N)CCCC2,7.3%
3,COc1ccc(SCC2CN(C)CCC2c2ccc(F)cc2)cc1.Cl (centres unmarked),8.45%
4,O=C(NC1CCCC1)C(c1ccccc1)N(C(=O)c1csnn1)C1CCCC1 (centres unmarked),-2.16%
5,Cc1cc(NC(=O)C(=O)NCCN2CCN(S(C)(=O)=O)CC2)ccc1Br,5.62%
6,CSc1ccccc1C(=O)Nc1cccc(C(C)O)c1 (centres unmarked),4.97%
7,CN1CCN(S(=O)(=O)c2ccc(NC(=O)Nc3cccc(Cl)c3)cc2)CC1,12.7%
8,COc1ccccc1-c1nnc(SCC(=O)Nc2oc(C)c3c(C)n[nH]c(=O)c23)n1C,20.9%
9,C#CCNC(=O)C1=C[C@@H](C2CC2)C[C@@H](OCCCCO)O1,12.6%
10,Oc1ccc(N2CCN(C(c3cccnc3)c3nnnn3Cc3ccccc3)CC2)cc1 (centres unmarked),1.43%
11,CCc1ccc(NC(=O)Cn2c(=O)n(CCCC(=O)NCc3ccco3)c(=O)c3ccccc32)cc1,4.77%
12,COc1ccccc1C(CNc1ccc(S(=O)(=O)N2CCCC2)cc1[N+](=O)[O-])N(C)C (centres unmarked),15.8%
13,Cc1cc2cc3c(cc2nc1SCC(=O)O)OCCO3,13.1%
14,c1ccc2sc(Sc3ncnc4sccc34)nc2c1,9.34%
15,CC1(C)CC(C(=O)NCCC(c2ccccc2)c2ccco2)CCO1 (centres unmarked),0.843%
16,Cl.N=c1sccn1CC(=O)Nc1ccc(S(=O)(=O)N2CCOCC2)cc1,12.3%
17,O=C(COc1cc(Cl)c(Cl)cc1Cl)Nc1ccncc1,3.58%
18,CN(C)c1cccc2c1c(NS(=O)(=O)c1cn(C)cn1)nn2C,8.71%
19,CS(=O)(=O)N(C(=O)NC(=O)NC1CCS(=O)(=O)C1)C1CCCCC1 (centres unmarked),2.95%
20,O=C(c1ccco1)N1CCN=C1SCc1ccc(F)cc1,6.49%
21,Cn1ccnc1SCC(=O)Nc1ccc2c(c1)OCO2,11.5%
22,N#CCCn1cc(C(=O)Nc2ccc(F)cc2)c(-c2ccccc2)n1,11.7%

row,SMILES,"hERG current change (%, negative = inhibition) at 1uM"
1,Cc1ccc(NC2=CC(=O)CC(c3ccccc3)C2)cc1 (centres unmarked),14%
2,O=C(NCCc1ccccn1)C(F)(F)C(F)(F)C(F)(F)C(F)(F)C(F)(F)C(F)(F)C(F)(F)C(F)F,13%
3,Cc1cc(C)n(CCCN2CCC(C(=O)Nc3cccc(-c4cccc(F)c4)c3)CC2)n1,-59.9%
4,O=C(O)CC1(CC(=O)Nc2cc(C(F)(F)F)cc(C(F)(F)F)c2)CCCCC1,15.2%
5,Cc1cc(NC(=O)c2ccc(N3C(=O)CCC3=O)cc2)no1,18.3%
6,CC(NC(=O)Cc1ccc(F)cc1)c1ccccc1 (centres unmarked),-10.8%
7,Cc1cccc(NC(=O)Cc2cccs2)n1,4.93%
8,O=C(COC(=O)c1ccc(CO)cc1)c1ccc(S(=O)(=O)N2CCCCC2)cc1,18%
9,Cc1ccc(C(=O)NC(=S)N(C)C2CCCCC2)cc1,6.79%
10,O=C(NCCc1c[nH]c2ccccc12)C(=O)NCC1OCCN1S(=O)(=O)c1cc(F)ccc1F (centres unmarked),8.19%
11,Cc1cc(C)c(OCC(=O)Nc2ccccn2)c([N+](=O)[O-])c1,4.53%
12,Cc1cccc(C)c1N(CC(=O)Nc1cc(Cl)ccc1Oc1ccccc1)S(C)(=O)=O,6.49%
13,COc1cc(C(=O)NCC2CCCO2)ccc1OCc1ccc(Cl)cc1Cl (centres unmarked),8.85%
14,Cn1c(CCN2CCCCC2)nc2cc(NC(=O)NC3CCCCC3)ccc21,7.55%
15,CCN1CCN(c2ccc([N+](=O)[O-])cc2S(=O)(=O)N2CCOCC2)CC1,-5.9%
16,Cc1cnc(C(=O)NNC(=O)c2ccc(Br)cc2)cn1,2.55%
17,CC(C)c1ccc(NC(=S)NNC(=O)c2cccnc2)cc1,14.3%
18,CCOC(=O)Cn1nc(C)n(-c2ccc(Br)cc2)c1=O,1.13%
19,CS(=O)(=O)N(CC(O)Cn1c2ccccc2c2ccccc21)c1cccc2ccccc12 (centres unmarked),4.78%
20,Cc1ccc(S(=O)(=O)N2CCOCC2)cc1C(=O)OCC(=O)NCc1ccc2c(c1)OCO2,-12.8%
21,COc1cccc(NC(=O)c2cc3ccccc3cc2OC)c1,16.5%
22,COc1ccc(N2C(=O)C3C4C=CC(c5ccccc5)(C3C2=O)C2C(=O)N(c3ccc(OC)cc3)C(=O)C42)cc1 (centres unmarked),8.21%
